Some of the results follow.
These sequences were tested on PfAP2-HC AP2 domain (GST-tagged) (assay: gcPBM binding intensity (ln(normalized median fluorescence intensity)); higher = stronger DNA binding).
How it was run: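 Binding intensity is the highest Masliner-normalised natural-log median intensity over replicate spots in either probe orientation. To obtain it, GST-tagged P. falciparum DNA-binding domains made in E. coli were incubated for 1 h on an Agilent 4 × 180k array of primer-extended double-stranded 36-bp intergenic genomic probes plus negative controls. Detection used Alexa488 anti-GST antibody with scanning at 488 nm.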
“ATATAAATAAATGTATGTACATATATTTATATGCAT [XGTACX_site4185]” was tested, and the “gcPBM binding intensity (ln)” value was 9.67.
For “GAAAAATTGAATTTGGGTACATATAAATATTATATT [XGTACX_site2363]”, the “gcPBM binding intensity (ln)” value was 9.54.
With “ATAAATATTAGCAGTTGTACAATAAATATATGTAAT [XGTACX_site2534]” the “gcPBM binding intensity (ln)” value was 9.83.
“TTAGATATAAAAGCATGTACTTGTATAAAATATATA [XGTACX_site8272]” was tested, and the “gcPBM binding intensity (ln)” value was 9.59.
TTCCCTATATAGAGCATGCACTATATTCAAATGATG was tested, and the “gcPBM binding intensity (ln)” value was 9.64.
For “TTATCAAATGAGTGTTGTACGTCTTTTGAAATACCA [XGTACX_site8804]”, the “gcPBM binding intensity (ln)” value was 9.42.
With “TCAGATCCATAGAAGGTGCAAATAACAAAAATACAA [GTGCAC_site9610]” the “gcPBM binding intensity (ln)” value was 9.86.
In the case of “TAATTTTTCTTATATAGTACACAAAAAGAAAATTAC [XGTACX_site6393]”, the “gcPBM binding intensity (ln)” value is reported as 9.37.
With “AAAATGTTTTTATCCAGTACATAAATATATATATAT [XGTACX_site7398]” the “gcPBM binding intensity (ln)” value was 9.58.
“TATGAACACCCAAATACACACACTCAAAAAAAAAAA [CACACA_site5466]” was tested, and the “gcPBM binding intensity (ln)” value was 10.4.
In the case of “AAAAACTATTGTAGGACACACAAAATTCCAATTTTA [CACACA_site1701]”, the “gcPBM binding intensity (ln)” value is reported as 9.82.
In the case of “AAGTAATTTATGCATACACACATATATAAATATGTA [CACACA_site7813]”, the “gcPBM binding intensity (ln)” value is reported as 9.81.
With “ATATATATAAAACACACACACACATGTTTTAAAACT [CACACA_site78]” the “gcPBM binding intensity (ln)” value was 10.5.
With “TATATATATATTTATACACACATTAGTGTATACATG [CACACA_site2950]” the “gcPBM binding intensity (ln)” value was 9.87.
In the case of “CACAAAAAGAAACACACACACATATATATTTATTAT [CACACA_site3646]”, the “gcPBM binding intensity (ln)” value is reported as 10.3.
With “AAATAAATGTTATGCATACACACTTTATACCTATTT [CACACA_site3779]” the “gcPBM binding intensity (ln)” value was 9.95.
For “AATGAATGAATTATTTTGCGCTTATTATAGGACGAA [XGTACX_negctrl_site218]”, the “gcPBM binding intensity (ln)” value was 9.67.
For “ATATATATTAGGTATTGTACTTATATGCATATAAGT [XGTACX_site2700]”, the “gcPBM binding intensity (ln)” value was 9.57.
For “TCTTTTATGTTTGTTTTTCCCTTTTTTTATGTTCCC [CACACA_negctrl_site1722]”, the “gcPBM binding intensity (ln)” value was 9.76.
“TTTTTTTATTATTAAAGTACTAAAAAATGAAAACTG [XGTACX_site6758]” was tested, and the “gcPBM binding intensity (ln)” value was 9.15.
In the case of “TATAATAAAAAATGTACACACATAAGAAAATTTAAT [CACACA_site2901]”, the “gcPBM binding intensity (ln)” value is reported as 10.1.
In the case of “TGGGAATAAAAACACACACACACACCGATATATATA [CACACA_site5875]”, the “gcPBM binding intensity (ln)” value is reported as 11.3.
With “GACTATTTTAATATTTTACACACCATGTAAAATATA [CACACA_site9050]” the “gcPBM binding intensity (ln)” value was 9.64.
With “ACATAATAAAAAAAACGTACAAATAGGTTTTTCATA [XGTACX_site6645]” the “gcPBM binding intensity (ln)” value was 9.82.
“TATATATATATATACACACACACCGTCCGTGTTAAA [CACACA_site2979]” was tested, and the “gcPBM binding intensity (ln)” value was 9.87.
For ATATATTAAAACCTAGTGCATTTGTACATATTTCAA, the “gcPBM binding intensity (ln)” value was 9.58.
For “AGGTTAAAACATATATATATATATATATATATATAT [XGTACX_negctrl_site333]”, the “gcPBM binding intensity (ln)” value was 9.5.
For “GCAGTCAAAAAGGAAAATATAAAAAAAGTATATGTG [GTGCAC_negctrl_site95]”, the “gcPBM binding intensity (ln)” value was 9.45.
In the case of TTATACAGGACAATAGTGCACATAAATATATGTATA, the “gcPBM binding intensity (ln)” value is reported as 9.87.
“TATCATTAATTTACATGTACATAAATGAATGTTTAT [XGTACX_site5608]” was tested, and the “gcPBM binding intensity (ln)” value was 9.51.
With “TTCGTAATTTATATCACACACATATATCTATAATAA [CACACA_site7458]” the “gcPBM binding intensity (ln)” value was 9.88.
In the case of “TTTTTTGTTATTAAAAGTACATTATATGCTAGTTAA [XGTACX_site8747]”, the “gcPBM binding intensity (ln)” value is reported as 9.34.
With “TTAAAAATATTATGTACACACATTTGAGATATTTGT [CACACA_site6953]” the “gcPBM binding intensity (ln)” value was 9.79.
With “TGAAATAAAATTTATACACACTTGCTAAATGATCAT [CACACA_site4265]” the “gcPBM binding intensity (ln)” value was 9.62.
In the case of “ATTATATACATATATGCACACAAAAAAATATATATT [CACACA_site8508]”, the “gcPBM binding intensity (ln)” value is reported as 9.79.
“AAAGGCTATCTTATATACTCCTAAAACGCGAACGTA [CACACA_negctrl_site396]” was tested, and the “gcPBM binding intensity (ln)” value was 9.25.
With “AATATATAAATATTGTGTACTTATTTTTTTATATGT [XGTACX_site4377]” the “gcPBM binding intensity (ln)” value was 9.73.
“ATAAATTCTATGTATACACACATATAAAATATAGAT [CACACA_site7296]” was tested, and the “gcPBM binding intensity (ln)” value was 9.86.
For “AACAATTTATATAAAGCACACATGGGAAGGAAATAC [CACACA_site1712]”, the “gcPBM binding intensity (ln)” value was 10.1.
For “TACAATTTAATATATACACACAAATAAATTATGCTT [CACACA_site856]”, the “gcPBM binding intensity (ln)” value was 9.62.
In the case of “ATATGTATGAAGTGTACACATATATTGTATTTTCTT [CACACA_site5503]”, the “gcPBM binding intensity (ln)” value is reported as 9.95.
For “GTAAGCACACATAGTTGTACATTAATAAAAATAAAT [XGTACX_site5876]”, the “gcPBM binding intensity (ln)” value was 9.94.
In the case of “TTCCTATAAAAAAACACACACATATAAATATATATA [CACACA_site2318]”, the “gcPBM binding intensity (ln)” value is reported as 9.92.
For “AAAAAAAACGAACACACACACATTCAATATAAAACA [CACACA_site6170]”, the “gcPBM binding intensity (ln)” value was 10.5.
With “CAATGGTCATTTAGTTGTACTTAATTTTAAATCAAA [XGTACX_site4075]” the “gcPBM binding intensity (ln)” value was 9.38.

From the supplement of paper PMC11417369
